The source of these data is article PMC9116245, “New 1,2,3-triazole linked ciprofloxacin-chalcones induce DNA damage by inhibiting human topoisomerase I& II and tubulin polymerization” (Journal of Enzyme Inhibition and Medicinal Chemistry, 2022).

What is called GI50 is the concentration at which growth is held to half of that of the control. Low readings indicate greater sensitivity of the cells, high ones lower sensitivity of the cells.

Experiment [1] deals with NCI-H322M. Kind of experiment: NCI one-dose screen. It is filed as cell-based. The conditions noted are these: Homo sapiens, read-out: Growth Percent. The procedure:
For screening of anticancer properties, all the developed compounds were chosen by the (NCI) for in-vitro antitumor evaluation. The assay was carried out using 59 human cancer cell lines obtained from nine tumour subpanels (breast, ovarian, melanoma, leukaemia, renal, CNS, lung, prostate, and colon cancer cell lines). Compounds were assessed at a 10 µM concentration. […] Also, hybrids 4a, 4b, 4e, 4i and 4j produced significant anti-proliferative effect in several cancer cells, particularly in leukaemia (RPMI-8226) and colon (HCT116) cells with growth percent of 47.87, −14.59, −24.56, −24.42, −15.84, −9.74, −53.36, −10.26, −31.29, and −39.51%, respectively.
(§1) The method description for NCI anticancer screening is provided in detail in the standard NCI-60 testing protocol.

Experiment [2] deals with NCI-H322M. The conditions noted are these: Homo sapiens. Here is the method:
Showing promising results in the single-dose assay, compound 4j was advanced for further investigation against a panel of 59 human cancer cell-lines at a five-dose levels. Those cell lines represent nine different tumours, and they were all incubated with our compound at 5 increasing concentrations (0.01, 0.1, 1, 10 and 100 µM). The In-vitro five-dose assay results were listed in Table 1, as GI50 which is the concentration causes 50% inhibition of cell proliferation and it was expressed in µM.
as §1

As for `O=C(/C=C/c1ccccc1)c1ccc(-n2cc(CN3CCN(c4cc5c(cc4F)c(=O)c(C(=O)O)cn5C4CC4)CC3)nn2)cc1` [Compound 4a, (E) 7-(4-((1–(4-Cinnamoylphenyl)-1H-1,2,3-triazol-4-yl)methyl)piperazin-1-yl)-1-cyclopropyl-6-fluoro-4-oxo-1,4-dihydroquinoline-3-carboxylic acid], the activity at 10 µM in the experiment with NCI-H322M [1] is 89.2%.
With `O=C(/C=C/c1cccc(Cl)c1)c1ccc(-n2cc(CN3CCN(c4cc5c(cc4F)c(=O)c(C(=O)O)cn5C4CC4)CC3)nn2)cc1` [Compound 4b, (E)-7-(4-((1–(4-(3-(3-chlorophenyl)acryloyl)phenyl)-1H-1,2,3-triazol-4-yl)methyl)piperazin-1-yl)-1-cyclopropyl-6-fluoro-4-oxo-1,4-dihydroquinoline-3-carboxylic acid], in the experiment with NCI-H322M [1], the activity at 10 µM is 80.2%.
Same read-out and setting: next, `O=C(/C=C/c1ccc(Cl)cc1)c1ccc(-n2cc(CN3CCN(c4cc5c(cc4F)c(=O)c(C(=O)O)cn5C4CC4)CC3)nn2)cc1` [Compound 4c, (E)-7-(4-((1-(4-(3-(4-chlorophenyl)acryloyl)phenyl)-1H-1,2,3-triazol-4-yl)methyl)piperazin-1-yl)-1-cyclopropyl-6-fluoro-4-oxo-1,4-dihydroquinoline-3-carboxylic acid]: 84.4%; `O=C(/C=C/c1ccc(Br)cc1)c1ccc(-n2cc(CN3CCN(c4cc5c(cc4F)c(=O)c(C(=O)O)cn5C4CC4)CC3)nn2)cc1` [Compound 4d, (E)-7-(4-((1-(4-(3-(4-bromophenyl)acryloyl)phenyl)-1H-1,2,3-triazol-4-yl)methyl)piperazin-1-yl)-1-cyclopropyl-6-fluoro-4-oxo-1,4-dihydroquinoline-3-carboxylic acid]: 88.8%; `O=C(/C=C/c1ccc(F)cc1)c1ccc(-n2cc(CN3CCN(c4cc5c(cc4F)c(=O)c(C(=O)O)cn5C4CC4)CC3)nn2)cc1` [Compound 4e, (E)-1-cyclopropyl-6-fluoro-7–(4-((1–(4-(3-(4-fluorophenyl)acryloyl)phenyl)-1H-1,2,3-triazol-4-yl)methyl)piperazin-1-yl)-4-oxo-1,4-dihydroquinoline-3-carboxylic acid]: 77.5%.
Same read-out and setting: next, `Cc1ccc(/C=C/C(=O)c2ccc(-n3cc(CN4CCN(c5cc6c(cc5F)c(=O)c(C(=O)O)cn6C5CC5)CC4)nn3)cc2)cc1` [Compound 4f, (E)-1-cyclopropyl-6-fluoro-4-oxo-7-(4-((1-(4-(3-(p-tolyl)acryloyl)phenyl)-1H-1,2,3-triazol-4-yl)methyl)piperazin-1-yl)-1,4-dihydroquinoline-3-carboxylic acid]: 87.1%; `COc1ccc(/C=C/C(=O)c2ccc(-n3cc(CN4CCN(c5cc6c(cc5F)c(=O)c(C(=O)O)cn6C5CC5)CC4)nn3)cc2)cc1` [Compound 4g, (E)-1-Cyclopropyl-6-fluoro-7-(4-((1-(4-(3-(4-methoxyphenyl)acryloyl)phenyl)-1H-1,2,3-triazol-4-yl)methyl)piperazin-1-yl)-4-oxo-1,4-dihydroquinoline-3-carboxylic acid]: 78.1%; `CN(C)c1ccc(/C=C/C(=O)c2ccc(-n3cc(CN4CCN(c5cc6c(cc5F)c(=O)c(C(=O)O)cn6C5CC5)CC4)nn3)cc2)cc1` [Compound 4h, (E)-1-cyclopropyl-7–(4-((1–(4-(3-(4-(dimethylamino)phenyl)acryloyl)phenyl)-1H-1,2,3-triazol-4-yl)methyl)piperazin-1-yl)-6-fluoro-4-oxo-1,4-dihydroquinoline-3-carboxylic acid]: 94.3%.
For `COc1ccc(/C=C/C(=O)c2ccc(-n3cc(CN4CCN(c5cc6c(cc5F)c(=O)c(C(=O)O)cn6C5CC5)CC4)nn3)cc2)cc1OC` [Compound 4i, (E)-1-cyclopropyl-7-(4-((1-(4-(3–(3,4-dimethoxyphenyl)acryloyl)phenyl)-1H-1,2,3-triazol-4-yl)methyl)piperazin-1-yl)-6-fluoro-4-oxo-1,4-dihydroquinoline-3-carboxylic acid], the activity at 10 µM in the experiment with NCI-H322M [1] was 72.8%.
With `COc1cc(/C=C/C(=O)c2ccc(-n3cc(CN4CCN(c5cc6c(cc5F)c(=O)c(C(=O)O)cn6C5CC5)CC4)nn3)cc2)cc(OC)c1OC` [Compound 4j, (E)-1-cyclopropyl-6-fluoro-4-oxo-7–(4-((1–(4-(3-(3,4,5-trimethoxyphenyl)acryloyl)phenyl)-1H-1,2,3-triazol-4-yl)methyl)piperazin-1-yl)-1,4-dihydroquinoline-3-carboxylic acid], in the experiment with NCI-H322M [1], the activity at 10 µM was found to be 52.6%. Growth in the experiment on NCI-H322M [2] was halved (GI50) at 3.58 µM. In addition, the CC50 with NCI-H322M [2] (read-out: LC50 (the source's name)) is greater than 100 µM.
